The values that follow come from publication PMC6919601, “Identification of Plasmodium dipeptidyl aminopeptidase allosteric inhibitors by high throughput screening” (PLoS ONE, 2019).

Out of some 110,000 compounds screened, about 230 (0.21%) showed an effect of 50% or more. The list shows a part of the results.
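Also: 30 min substrate incubation versus DMSO and 10 µM JCP410 controls.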

DPAP1, sequence (Q8IIJ9 whole entry, looked up): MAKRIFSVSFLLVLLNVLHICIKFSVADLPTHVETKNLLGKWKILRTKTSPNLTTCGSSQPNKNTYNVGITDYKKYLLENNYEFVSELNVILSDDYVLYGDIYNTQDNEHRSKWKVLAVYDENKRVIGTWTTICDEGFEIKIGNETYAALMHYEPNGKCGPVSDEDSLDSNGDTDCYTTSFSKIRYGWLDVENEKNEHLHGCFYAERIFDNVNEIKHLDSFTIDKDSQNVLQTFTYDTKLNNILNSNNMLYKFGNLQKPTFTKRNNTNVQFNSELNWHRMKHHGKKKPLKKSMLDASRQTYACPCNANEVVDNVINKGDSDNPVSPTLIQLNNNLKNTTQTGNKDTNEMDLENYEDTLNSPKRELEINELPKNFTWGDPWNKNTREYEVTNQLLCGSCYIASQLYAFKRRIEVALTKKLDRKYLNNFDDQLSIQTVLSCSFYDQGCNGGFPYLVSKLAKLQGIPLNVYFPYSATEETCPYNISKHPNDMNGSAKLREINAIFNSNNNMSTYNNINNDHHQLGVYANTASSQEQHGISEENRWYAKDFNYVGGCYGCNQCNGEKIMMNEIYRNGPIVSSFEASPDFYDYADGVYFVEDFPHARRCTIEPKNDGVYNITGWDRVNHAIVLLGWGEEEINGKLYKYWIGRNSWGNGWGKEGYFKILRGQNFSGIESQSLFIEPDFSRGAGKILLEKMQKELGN

This assay concerns the target DPAP1 (Plasmodium falciparum, UniProt Q8IIJ9). In words: primary screen, percent inhibition; read by cleavage of a fluorogenic dipeptide substrate; higher = more effect of the substance. Set-up: species or system P. falciparum D10 trophozoite lysates; single well.
Take `Cc1ccccc1C(=O)NCCN1CCCC1`: the “% Inhibition @ 10 uM” value was found to be 4.88%. `COc1ccccc1CNC(=O)c1cc2c(=O)oc3ccccc3c2s1`: the “% Inhibition @ 10 uM” value turned out to be 1.5%. For `COc1cccc(/C=C2\N=C(c3cc(Cl)ccc3Cl)OC2=O)c1OC`, the “% Inhibition @ 10 uM” value is -6.46%.

As for `CC1CCN(C(=O)CN2C(=O)c3cccc4cccc(c34)C2=O)CC1`, the “% Inhibition @ 10 uM” value is listed as -1.22%. With `CCCCNC(=O)c1nccnc1C(=O)O` the figure was 3.31%; with `CCCOc1ccccc1C1NC(=O)NC(C)=C1C(=O)OCC(F)(F)C(F)(F)F` (stereo not drawn), 1.12%; with `CC(C)n1c(C(O)c2ccccc2)nc2ccccc21` (stereo not drawn), 1.13%. As for `O=C(CSc1nnc(-c2c[nH]c3ccccc23)n1-c1ccc(F)cc1)NC1CCCC1`, the “% Inhibition @ 10 uM” value is given as -6.91%. With `N#CC(=C\c1[nH]c2ccccc2c1O)/C(N)=N/Cc1ccccc1`, the “% Inhibition @ 10 uM” value is -1.26%. For `Cc1ccccc1CNCc1c(C(=O)O)c(C)n(Cc2c(F)cccc2Cl)c1C`, the “% Inhibition @ 10 uM” value is 1.41%. As to `Cc1ccc(-c2cc(C(=O)NCCCOC(C)C)c3ccccc3n2)cc1C`, the “% Inhibition @ 10 uM” value came out at 1.16%. The value for `O=C(NC1CCCCC1NC(=O)c1ccco1)c1ccco1` (stereo not drawn) was 1.59%; that for `CCN1CCN(C(=O)c2cc3c(=O)n(Cc4ccccc4)ccc3nc2C)CC1` was 4.32%; that for `COCCNC(=O)/C(=C/c1ccccc1)NC(C)=O` was -5.64%. With `COCC(C)NC(=O)COCc1cc(-c2ccc3c(c2)OCO3)on1` (stereo not drawn), the “% Inhibition @ 10 uM” value is reported as 7.44%. For `CCc1ccc(C2C3=C(O)CC(C)(C)CC3=NC(C)=C2C(=O)Nc2ccccc2OC)cc1` (stereo not drawn), the “% Inhibition @ 10 uM” value was -2.24%. With `CCOC(=O)c1[nH]c(C)c(C(=O)NCCc2ccc(S(N)(=O)=O)cc2)c1C` the figure was -2.84%. Turning to `O=C1NN=C(c2ccccc2)C1CCO` (stereo not drawn), the “% Inhibition @ 10 uM” value is listed as 1.67%. For `COc1ccc(NC(=O)c2cccs2)cc1OC`, the “% Inhibition @ 10 uM” value came to 5.73%. On to `CCOc1ccc(CCNC(=O)CN2C(=O)CSc3ncccc32)cc1`, for which the “% Inhibition @ 10 uM” value is 2.65%. In the case of `CN(C)CCNC(=O)Nc1cn(C)c(=O)c2ccccc12`, the “% Inhibition @ 10 uM” value was 4.91%. Turning to `Cc1ccc(C(=O)Nc2cccc(/C=C/C(=O)O)c2)o1`, the “% Inhibition @ 10 uM” value is -1.66%. With `CCCSCCCNC(=O)C(C)n1nc(CC)n2c(cc3occc32)c1=O` (stereo not drawn) the figure was -2.22%; with `NS(=O)(=O)c1ccc(NC(=O)Nc2ccccc2Cl)cc1`, -3.04%.

Consider `COC(=O)c1cc(O)c(OCc2ccccc2)c(O)c1`, for which the “% Inhibition @ 10 uM” value is reported as -4.24%.

For the compound `CCOC(=O)c1c(C)[nH]c(C)c1S(=O)(=O)N1CCC(Cc2ccccc2)CC1`, the “% Inhibition @ 10 uM” value is recorded as -2.34%. Regarding `CC1(C)CC(=O)C2=C(C1)OC(N)=C(C#N)C2c1cccc(O)c1` (stereo not drawn), the “% Inhibition @ 10 uM” value is listed as -3.62%.

In the case of `CCc1ccc(-c2nc3c(=O)n(C)c(=O)nc-3n(CC)n2)cc1`, the “% Inhibition @ 10 uM” value is recorded as -6.5%. `COc1ccc(OC)c(/C=C2/NC(=O)N(Cc3ccc(Cl)cc3)C2=O)c1`: the “% Inhibition @ 10 uM” value is on record as -4.93%. In the case of `O=C(NCc1ccco1)c1ccc(-c2cccc(Cl)c2)o1`, the “% Inhibition @ 10 uM” value is -13%.

Regarding `Cc1ccc(C2=NS(=O)(=O)N(C)C(C(=O)N(C)C3CCCCC3)=C2)cc1`, the “% Inhibition @ 10 uM” value amounted to 0.655%.

In the case of `COc1cc(/C=C(\C#N)c2nc3ccccc3[nH]2)ccc1OC(C)C`, the “% Inhibition @ 10 uM” value is -0.725%. As for `O=C(NCCc1ccccc1)C(=O)Nc1cccc(C(F)(F)F)c1`, the “% Inhibition @ 10 uM” value is given as -2.18%.

`Cc1ccc2c(Cl)c(C(=O)NCc3cccnc3)sc2c1`: the “% Inhibition @ 10 uM” value came out at 1.03%. As to `CCCCn1c(CN(C)Cc2ccccc2)nc2c1c(=O)n(C)c(=O)n2C`, the “% Inhibition @ 10 uM” value is listed as -4.14%.

Consider `O=C(O)c1ccc(N2C(=O)c3ccc([N+](=O)[O-])cc3C2=O)cc1`, for which the “% Inhibition @ 10 uM” value is given as 0.266%.

Turning to `CCn1ncc(/C=N/N=C2\CCC3C4CCc5cc(O)ccc5C4CCC23C)c1C` (stereo not drawn), the “% Inhibition @ 10 uM” value came out at 3.94%. The value for `Cc1ccc(OCC(=O)N2CCc3ccccc32)cc1` was 2.13%; that for `Cn1c2c(c(=O)n(C)c1=O)C(c1ccc(Cl)cc1Cl)C1C(=O)c3ccccc3C1=N2` (stereo not drawn) was 5.59%. For the compound `O=C(CCCn1c(=O)c2sccc2n(Cc2cccc(F)c2)c1=O)NCc1ccc2c(c1)OCO2`, the “% Inhibition @ 10 uM” value is 2.98%. Take `Cc1ccc(-n2ncc3c(S)ncnc32)cc1`: the “% Inhibition @ 10 uM” value is on record as -6.6%. With `Cc1ccc(C(C)C)c(Oc2nc3ccccn3c(=O)c2/C=C(\C#N)C(=O)NCc2ccccc2)c1` the figure was -1.43%; with `CC1CCN(S(=O)(=O)c2ccc3c(ccn3CC(=O)NCc3ccco3)c2)CC1`, -0.356%. With `COc1ccccc1OCC(=O)Nc1cc(Cl)cc(Cl)c1` the figure was 0.907%; with `CCN1CCN(C(CNC(=O)C(=O)NCc2ccco2)c2cccnc2)CC1` (stereo not drawn), -7.29%. For `Cc1cccc(C)c1Oc1ccc(NC(=O)CCC(=O)O)cc1`, the “% Inhibition @ 10 uM” value was determined as 7.42%. The value for `CCC1CCCCN1CCNC(=O)C1CCC(CNS(=O)(=O)c2cccc3nsnc23)CC1` (stereo not drawn) was 1.26%; that for `Cc1c(C(=O)N2CCN(Cc3ccccc3)CC2)sc2ncnc(N3CCC(C)CC3)c12` was -2.17%; that for `COc1ccc(CCC(=O)Nc2ccccn2)cc1` was 0.24%. Consider `Cc1ccc(OCC(=O)Nc2sc(C)c(C)c2C(N)=O)cc1`, for which the “% Inhibition @ 10 uM” value turned out to be 1.84%. As to `CC(C)N(Cc1nc(-c2ccccc2)no1)C(=O)c1ccc(C(C)(C)C)cc1`, the “% Inhibition @ 10 uM” value is given as 4.38%. Consider `CC1=C(C(=O)Nc2ccc(Br)cc2)C(c2ccc(Br)cc2)NC(S)=N1` (stereo not drawn), for which the “% Inhibition @ 10 uM” value is -0.603%. Regarding `Cc1nn(CC(=O)NCCCN2CC(C)CC(C)C2)c(=O)c2cc3cc(F)ccc3n12` (stereo not drawn), the “% Inhibition @ 10 uM” value was 3.09%.

For `O=c1nc2n(c(O)c1C(c1ccc(Br)cc1)c1c(O)nc3n(c1=O)CCCS3)CCCS2` (stereo not drawn), the “% Inhibition @ 10 uM” value was 9.94%. In the case of `N#Cc1c(N)nc2c(c1-c1ccc(Cl)cc1Cl)CCCC2`, the “% Inhibition @ 10 uM” value was -4.94%. Take `CCOc1cc(CNCc2c(C(=O)O)c(C)n(Cc3ccc(F)cc3)c2C)cc(OCC)c1OCC`: the “% Inhibition @ 10 uM” value is -5.49%. As to `CN1CC(=O)N=C1NC(=O)c1cnn(-c2ccccc2)c1-n1cccc1`, the “% Inhibition @ 10 uM” value was -4.27%.

Regarding `Cc1cc(C)c(-c2c(O)c3ccccc3n(C)c2=O)c(C)c1`, the “% Inhibition @ 10 uM” value is on record as -7.55%.

As for `COc1ccccc1C(=O)N1CCCc2ccccc21`, the “% Inhibition @ 10 uM” value is 4.83%. Regarding `O=C(Nc1cccc2ccccc12)c1onc2c1CCCC2`, the “% Inhibition @ 10 uM” value stood at 0.777%. With `O=S(=O)(NCc1ccc(CN2CCCCCC2)o1)c1ccc(-c2cc(C(F)(F)F)no2)s1`, the “% Inhibition @ 10 uM” value came out at 0.533%. With `CSc1ccc(CN2CCC(O)(c3ccc(Br)cc3)CC2)cc1` the figure was 4.75%; with `CCOc1ccc2nc(NCc3ccc(F)cc3)sc2c1`, 1.76%.
